In PubChem BioAssay (NCI):
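Tested at 5 concentrations; 48 h exposure; 96-well plates; endpoints linearly interpolated, else capped at highest concentration. The concentration for 50% growth inhibition is given as GI50. At the TGI there is no net growth.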

System: NCI-H322M lung
Test: NCI tumour cell line growth inhibition, 48 h

Compound | GI50 | TGI
O=S(=O)(Nc1cccc2ccccc12)c1ccc(-c2cnc(C3CC3)o2)cc1 | 1.82 µM | > 100 µM
COc1cc(-c2nnc(SCc3ccc(O)c4ncccc34)n2-c2ccccc2)cc(OC)c1OC | 0.39 µM | > 100 µM
c1ccc2c(NCCCn3ccnc3)c3oc4ccccc4c3nc2c1 | 1.77 µM | 9.11 µM
Nc1nc(N)c2c(n1)NC(c1ccc(F)cc1)CC(c1ccc(Nc3nc(NCCO)nc(Nc4ccc(Cl)cc4)n3)cc1)=N2 (stereo not given) | 2.43 µM | 6.96 µM
Nc1nc(-c2cccc([N+](=O)[O-])c2)c(N=Nc2ccccc2[N+](=O)[O-])s1 | 11.1 µM | > 100 µM
